{"source": "PubChem BioAssay AID652104", "about": "(National Center for Advancing Translational Sciences (NCATS), 2013)", "note": "Hit rate of the full screen: of about 410,000 compounds, about 7,200 (1.8%) were called active. Inconclusive results, whose numbers are uncertain, are shown with a selection of clear calls. Calls follow the shape of the dose curve; as a rule, active = well fitted activation curve with a large enough effect; inconclusive = small, poorly fitted or top-dose-only effect, or another doubt; inactive = no such curve, though single readings can be large or run the other way. No potency is given beside an inconclusive call; the fits are too rough. Potency is read from the fitted curve at half-maximal effect; tags tell the direction and shape of the fitted curve."}
{"test": "qHTS of TDP-43 Inhibitors; also: nearly all actives have a fitted effect of over 50% in size; as to growth rescue (activation): % of control where 0% means no effect", "conditions": "TDP-43 expressing yeast growth rescue, BacTiter-Glo, 24 h; growth rescue (activation): at 46.1 µM (top of the series) unless noted", "summary_of_the_method": "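Yeast cells expressing TDP-43 under galactose induction are exposed to compounds for 24 hr at 30 deg C. BacTiter-Glo luminescence measures growth, so protective compounds score as activators.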"}
{"smiles": "O=C(COC(=O)CCCOc1ccc(Cl)cc1Cl)Nc1cccc(Cl)c1", "Potency": "inconclusive [activator, single point]"}
{"smiles": "Cc1ccccc1-c1csc(C(O)c2ccccc2)n1", "note": "(centres undefined)", "Potency": "inconclusive [activator, partial curve]"}
{"smiles": "CC(=O)c1ccc(NC(=O)CCc2c(C)nn(-c3ccc(N4CCOCC4)nn3)c2C)cc1", "Potency": "inconclusive [activator, single point]"}
{"smiles": "O=[N+]([O-])c1ccc(OS(=O)(=O)Cc2ccccc2)cc1", "Potency": "inconclusive [activator, single point]"}
{"smiles": "COc1cccc(NC(=O)CN(C)C(=O)c2cccnc2Nc2cccc(C(F)(F)F)c2)c1", "Potency": "inconclusive [activator, partial curve, poor fit]"}
{"smiles": "Cc1ccc(C2CC2c2n[nH]c(=S)n2-c2cccc(Cl)c2)cc1", "note": "(centres undefined)", "Potency": "active: 35.5 µM"}
{"smiles": "Cc1nc(-c2ccc(S(=O)(=O)NCC3CCN(C(=O)OC(C)(C)C)CC3)s2)cs1", "Potency": "inconclusive [activator, partial curve]"}
{"smiles": "Fc1ccc(C2CC(c3ccco3)=NN2c2ccccc2)cc1", "note": "(centres undefined)", "Potency": "inconclusive [activator, partial curve]"}
{"smiles": "Cc1cc2oc(C(=O)Nc3ccc(S(=O)(=O)N(C)Cc4ccccc4)cc3)cc(=O)c2cc1C", "Potency": "inconclusive [activator, partial curve]"}
{"smiles": "CCCc1nn(C)c(C(=O)Nc2cccc(C)c2)c1Cl", "Potency": "inconclusive [activator, single point]"}
{"smiles": "NNC(=O)COc1ccc(C2SCCS2)cc1", "Potency": "inconclusive [activator, single point]"}
{"smiles": "S=C1SCN(CCc2ccccc2)CN1CCc1ccccc1", "Potency": "inconclusive [activator, partial curve]"}
{"smiles": "Cc1ccc(-n2cnc3scc(-c4cccs4)c3c2=O)cc1", "Potency": "inconclusive [activator, partial curve]"}
{"smiles": "Cc1cc(C)c(S(=O)(=O)NCCn2ccc3ccccc32)c(C)c1", "Potency": "active: 12.6 µM"}
{"smiles": "COc1ccc2sc(-c3ccc(N(C)C)cc3)c(-c3cnc(OC)nc3)c2c1", "Potency": "inconclusive [activator, partial curve]"}
{"smiles": "CCCn1c(CN2CCN(c3ccc(OC)cc3)CC2)nc2c1c(=O)[nH]c(=O)n2C", "growth rescue (activation)": "inactive: -1.16%"}
{"smiles": "COc1ccc(Cl)c2sc(N3CCN(C(=O)c4ccco4)CC3)nc12", "Potency": "active: 17.8 µM"}
{"smiles": "O=C(CSC1=Nc2ccccc2C2=NC(CCC(=O)NC3CCCCC3)C(=O)N12)Nc1cccc(C(F)(F)F)c1", "note": "(centres undefined)", "growth rescue (activation)": "inactive: 2.66%"}
{"smiles": "Cc1noc(C(=O)Nc2cccc(Cl)c2)c1Cl", "Potency": "inconclusive [activator, full curve, poor fit]"}
{"smiles": "Cc1ccccc1NC(=S)N(C)Cc1cccs1", "Potency": "inconclusive [activator, partial curve]"}
{"smiles": "COc1cc(C2(c3ccc(O)c(OC)c3)C(=O)N(C)c3ccc(Br)cc32)ccc1O", "growth rescue (activation)": "inactive: -8.99%"}
{"smiles": "CC(C)CN(C)C(=O)CCc1nnc(Cc2ccc(-c3ccccc3)cc2)o1", "Potency": "inconclusive [activator, partial curve]"}
{"smiles": "Cc1cc(Cl)ccc1OCC(=O)N1CCN(c2ncccn2)CC1", "Potency": "inconclusive [activator, partial curve, poor fit]"}
{"smiles": "COc1ccc(C2CC(c3ccc(Br)cc3)=NN2C(=O)CSC2=NCCS2)cc1", "note": "(centres undefined)", "Potency": "inconclusive [activator, partial curve]"}
{"smiles": "COCCCN(C(=O)c1ccco1)c1nc(-c2ccc(OC)cc2)cs1", "Potency": "inconclusive [activator, single point]"}
{"smiles": "O=C(Nc1ccc([N+](=O)[O-])cc1)NN1CCCCCC1", "Potency": "inconclusive [activator, partial curve]"}
{"smiles": "N/C(CC(=O)Nc1ccc(F)c(Cl)c1)=N\\OC(=O)c1cccs1", "Potency": "inconclusive [activator, partial curve]"}
{"smiles": "CC(NC(=O)COC(=O)c1ccc[nH]c1=O)c1ccccc1", "note": "(centres undefined)", "growth rescue (activation)": "inactive: -12.9%"}
{"smiles": "CCOc1ccccc1NC(=O)Cn1c(=O)n(CCC(=O)NCc2ccc3c(c2)OCO3)c(=O)c2ccccc21", "growth rescue (activation)": "inactive: 3.51%"}
{"smiles": "COc1ccc(-n2c(C)nc3c(cnn3-c3ccc(Cl)cc3)c2=O)cc1", "Potency": "inconclusive [activator, single point]"}
{"smiles": "S=C(NCc1ccco1)Nc1ccc(Oc2ccc(Cl)cc2)cc1", "Potency": "inconclusive [activator, single point]"}
{"smiles": "O=C1CC(c2nc3ccccc3[nH]2)CN1c1ccccc1", "note": "(centres undefined)", "Potency": "inconclusive [activator, single point]"}
{"smiles": "O=C(CC1SC(=Nc2cccc3ccccc23)N(Cc2ccccn2)C1=O)Nc1ccccc1Br", "note": "(centres undefined)", "Potency": "inconclusive [activator, single point]"}
{"smiles": "O=C(Nc1ccccc1)C(CCCCN1C(=O)c2ccccc2C1=O)N1C(=O)c2ccccc2C1=O", "note": "(centres undefined)", "Potency": "inconclusive [activator, partial curve]"}
{"smiles": "COc1cc(NC(=O)c2ccc(F)cc2)c(OC)cc1Cl", "Potency": "inconclusive [activator, full curve, poor fit]"}
{"smiles": "CCCSc1nn2c(=O)c3ccccc3nc2s1", "Potency": "inconclusive [activator, partial curve]"}
{"smiles": "CCCCOc1ccc(/C=C/C(=O)OCC(=O)NC(=O)NCC(C)C)cc1OCC", "growth rescue (activation)": "inactive: -7.6%"}
{"smiles": "OCCc1ccc(O)c(-n2nc3ccccc3n2)c1", "Potency": "inconclusive [activator, single point]"}
{"smiles": "CCN(CC)c1ccc(/C=C(\\C#N)C(N)=S)cc1", "Potency": "inconclusive [activator, single point]"}
{"smiles": "CCC(CC)C(=O)Nc1cc([N+](=O)[O-])ccc1Cl", "Potency": "inconclusive [activator, partial curve]"}
{"smiles": "COc1ccccc1CNC(=O)c1ccc(Cn2c(SCc3ccccc3)nc3cccnc32)cc1", "growth rescue (activation)": "inactive: -19.3%"}
{"smiles": "CCOc1ccc(C(=O)N2CCC(c3nnc(-c4ccccc4OC)o3)CC2)cc1", "Potency": "inconclusive [activator, partial curve, poor fit]"}
{"smiles": "CC(C)C1C(=O)N(Cc2cn(CC3CCCCC3)nn2)CCS(=O)(=O)N1Cc1ccc(-c2ccc(Cl)cc2)cc1", "note": "(centres undefined)", "Potency": "inconclusive [activator, full curve, poor fit]"}
{"smiles": "COC(=O)C(CCSC)NC(=O)C1CCN(c2ncnc3c2nc2n3CCCCC2)CC1", "note": "(centres undefined)", "growth rescue (activation)": "inactive: 17.7%"}
{"smiles": "CCCC[C@@H]1CNC(=S)N1CCCC", "Potency": "inconclusive [activator, full curve]"}
{"smiles": "Fc1ccc(-n2ncc3c(NC4CCCCCC4)ncnc32)cc1", "Potency": "inconclusive [activator, partial curve]"}
{"smiles": "O=C(NC(=S)Nc1ccc([N+](=O)[O-])cc1)c1ccco1", "Potency": "inconclusive [activator, full curve, poor fit]"}
{"smiles": "CCOc1ccc(Cl)cc1-c1cc(C(=O)NCc2ccccc2)[nH]n1", "Potency": "inconclusive [activator, single point]"}
{"smiles": "O=C1OCC/C1=C\\NCCCCCCCCN/C=C1\\CCOC1=O", "Potency": "inconclusive [activator, partial curve]"}
{"smiles": "O=S(=O)(c1cc(F)ccc1F)N1CCN(c2ncccn2)CC1", "Potency": "inconclusive [activator, single point]"}
{"smiles": "CCOc1ccc(-n2nc3ccc(NC(=O)Cc4ccccc4)cc3n2)cc1", "Potency": "inconclusive [activator, partial curve]"}
{"smiles": "COC(=O)[C@@]1(Cc2ccc(F)cc2)[C@H]2c3cc(C(=O)N4CCCC4)n(CCc4ccc(OC)c(Br)c4)c3C[C@H]2CN1C(=O)c1ccccc1", "Potency": "inconclusive [activator, partial curve]"}
{"smiles": "COC(=O)CCn1nnc(-c2ccc(C(C)C)cc2)n1", "Potency": "inconclusive [activator, single point]"}
{"smiles": "CC1CCc2c(sc(NC(=O)CCCOc3ccccc3)c2C(N)=O)C1", "note": "(centres undefined)", "Potency": "inconclusive [activator, partial curve]"}
{"smiles": "COC(=O)c1sc2cccc(F)c2c1S(=O)(=O)N1CCN(c2cccc(C)c2)C(C)C1", "note": "(centres undefined)", "Potency": "inconclusive [activator, single point]"}
{"smiles": "COc1ccc(CCNc2ncnc3c2nnn3C)cc1", "Potency": "inconclusive [activator, partial curve]"}
{"smiles": "O=C(c1ccc(N2C(=O)c3ccccc3C2=O)cc1)N1CCN(S(=O)(=O)c2ccccc2F)CC1", "Potency": "inconclusive [activator, single point]"}
{"smiles": "N#CCC(=O)Nc1ccc(C(=O)OCc2ccccc2Oc2ccccc2)cc1", "Potency": "inconclusive [activator, single point]"}
{"smiles": "O=C(NCC(c1ccco1)N1CCCCC1)c1ccc(OCc2ccccc2)cc1", "note": "(centres undefined)", "Potency": "inconclusive [activator, single point]"}
{"smiles": "O=C1C(=O)c2ccccc2C(O)=C1c1cccc([N+](=O)[O-])c1", "growth rescue (activation)": "inconclusive: 48.7% [activator]"}
{"smiles": "COc1cc(NC(=O)c2cc(-c3cccc(OC)c3)n[nH]2)cc(OC)c1", "Potency": "inconclusive [activator, partial curve]"}
{"smiles": "CC(C)c1ccc(/C=C/C(=O)n2nnc3ccccc32)cc1", "Potency": "inconclusive [activator, single point]"}
{"smiles": "Cc1cccc(N=NC(=S)NNc2cccc(C)c2)c1", "Potency": "inconclusive [activator, single point]"}
{"smiles": "C=CCNC(=S)N/N=C/c1ccc(-c2ccc(OC)cc2)o1", "Potency": "inconclusive [activator, single point]"}
